{"source": "PubChem BioAssay AID1508649", "about": "(National Center for Advancing Translational Sciences (NCATS), 2021)", "note": "Screen size: about 43,000 compounds; about 830 (1.9%) were called active. The inconclusive results got no clear call from the source; some entries with a clear call stand among them for comparison. How the source made its calls: active means clear falling dose curves in both reporters; inconclusive means both reporters move, but less clearly or upward; inactive means either reporter flat; the % is the NLuc reporter signal. Potencies of inconclusive entries are left out as doubtful fits. Potency means the concentration at half of the fitted maximal effect; tags describe the fitted curve by direction and shape.", "data": [{"assay": "Cell-based coincidence reporter assay to measure PMP22 gene transcription in S16 Pmp22-F2sN cells - Primary screen", "conditions": "S16 Pmp22-F2sN Schwann cells (luciferase reporters placed in the Pmp22 gene), FLuc/NLuc coincidence luminescence, 24 h; measured here: NLuc reporter readout, at 57.5 µM (top of the series)", "summary_of_the_method": "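Reporter cells (S16 Pmp22-F2sN, 500–1,000 per well) exposed to compounds for 24 h, 37C, 5% CO2; lysis with FLuc read after 10 min, then Stop&Glo and NLuc read after 10 min.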", "values": [{"smiles": "COc1ccc(-c2csc3ncnc(Nc4cc(OC)cc(OC)c4)c23)cc1", "Potency": "inactive"}, {"smiles": "COc1cccc(NC(=O)Cn2cc(C(=O)c3ccco3)c3ccccc32)c1", "Potency": "inconclusive [phenotype inactive, single point]"}, {"smiles": "CC(C)c1cc(-c2nc(-c3cccc(Cl)c3)no2)n[nH]1", "Potency": "inconclusive [phenotype inactive, partial curve]"}, {"smiles": "CCN(c1cccc(C)c1)S(=O)(=O)c1c(C)nc2sc(C)cn2c1=O", "Potency": "inconclusive [phenotype inactive, single point]"}, {"smiles": "O=C(Cn1cc(C(=O)c2cccs2)c2ccccc21)Nc1ccc(Br)cc1", "Potency": "inconclusive [phenotype inactive, single point]"}, {"smiles": "COc1ccc(N2CCN(C(c3ccc(F)cc3)c3sc4nc(-c5ccco5)nn4c3O)CC2)cc1", "note": "(stereo not drawn)", "Potency": "inactive"}, {"smiles": "Cc1ccc(S(=O)(=O)CCC(=O)N2CCN(c3nc4c(C)c(C)ccc4s3)CC2)cc1", "Potency": "inactive"}, {"smiles": "Cc1ccc(S(=O)(=O)N(CC(=O)NCCSc2ccc(Cl)cc2)c2cccc(Cl)c2)cc1", "Potency": "inconclusive [phenotype inactive, single point]"}, {"smiles": "CCCCN1C(=O)c2[nH]nc(-c3ccccc3O)c2C1c1cccc(OCc2ccccc2)c1", "note": "(stereo not drawn)", "Potency": "inconclusive [phenotype inactive, single point]"}, {"smiles": "CCOc1ccccc1CNS(=O)(=O)c1ccc2c(c1)CCCN2C(C)=O", "Potency": "inconclusive [phenotype inactive, partial curve, poor fit]"}, {"smiles": "Cc1ccc(-c2nc3cc(C(C)C)ccc3o2)cc1NC(=O)c1cc2ccccc2o1", "Potency": "inconclusive [phenotype inactive, single point]"}, {"smiles": "Cc1cccc(NC(=O)CCCn2c(C)c3cnn(-c4ccccc4)c(=O)c3c2C)c1C", "Potency": "inactive"}, {"smiles": "CCOC(=O)C1CCN(c2ncnc3c2c(-c2ccccc2)cn3-c2cccc(C)c2)CC1", "Potency": "inactive"}, {"smiles": "CCOCCc1nn2c(=O)cc(COC(=O)CNC(=O)c3ccc(C(C)(C)C)cc3)nc2s1", "Potency": "inconclusive [phenotype inactive, single point]"}, {"smiles": "CCOC(=O)c1c(NC(=O)CSc2cn(CCNC(=O)c3ccccc3F)c3ccccc23)sc2c1CCC2", "Potency": "inactive"}, {"smiles": "CCOC(=O)c1c(C)n(-c2ccccc2)c2ccc(OC(=O)c3ccccc3)cc12", "Potency": "inconclusive [phenotype inactive, single point]"}, {"smiles": "COc1cccc(N2CCN(S(=O)(=O)c3cc(Br)cc4c3N(C(=O)C3CC3)CC4)CC2)c1", "Potency": "inconclusive [phenotype inactive, single point]"}, {"smiles": "O=C(CSc1ncc(S(=O)(=O)c2ccc(Br)cc2)c(=O)[nH]1)NCc1ccc(Cl)cc1", "Potency": "inactive"}, {"smiles": "Cc1cccc(OCC(=O)Nc2c(C)ccc3nsnc23)c1C", "Potency": "inactive"}, {"smiles": "O=C(NCc1ccc(F)cc1)c1ccc(CS(=O)(=O)c2ccc(Cl)cc2)o1", "Potency": "inconclusive [phenotype inactive, single point]"}, {"smiles": "O=C(CN(c1ccc(Cl)c(C(F)(F)F)c1)S(=O)(=O)c1ccccc1)N1CCc2ccccc2C1", "Potency": "inconclusive [phenotype inactive, single point]"}, {"smiles": "CCc1ccccc1N(C)C(=O)C1CCCN(c2ncnc3onc(-c4ccc(F)cc4)c23)C1", "note": "(stereo not drawn)", "Potency": "inconclusive [phenotype inactive, single point]"}, {"smiles": "CN1c2cc(Cl)ccc2-c2nc(SCC(=O)Nc3ccc(F)cc3F)ncc2S1(=O)=O", "Potency": "inconclusive [phenotype inactive, partial curve]"}, {"smiles": "CCN(C(=O)c1cc2c(Cl)nc3ccccc3c2s1)c1cccc(Cl)c1", "Potency": "inconclusive [phenotype inactive, single point]"}, {"smiles": "CNC(=O)c1cc2c(n(-c3ccc(C)cc3)c1=O)CC(C)(C)CC2=O", "Potency": "inactive"}, {"smiles": "O=C(CSc1nc2c(c(=O)[nH]1)CN(Cc1ccc(F)cc1)CC2)Nc1cccc(C(F)(F)F)c1", "Potency": "inconclusive [phenotype inactive, single point]"}, {"smiles": "CCOC(=O)c1ccc(N2C(=O)c3[nH]nc(-c4ccccc4)c3C2c2cccs2)cc1", "note": "(stereo not drawn)", "Potency": "inconclusive [phenotype inactive, single point]"}, {"smiles": "COc1ccc(Nc2nc(N)nc(CSc3nc4ccccc4s3)n2)cc1", "Potency": "inconclusive [phenotype inactive, single point]"}, {"smiles": "COc1ccc(-c2cc(C(F)(F)F)nc(S(=O)(=O)CCCC(=O)Nc3ccccc3C(F)(F)F)n2)cc1OC", "Potency": "inconclusive [phenotype inactive, partial curve, poor fit]"}, {"smiles": "CCCn1cc(S(=O)(=O)c2cccc(Cl)c2)c(=O)c2cc(F)c(N3CCN(CC)CC3)cc21", "Potency": "inconclusive [phenotype inactive, single point]"}, {"smiles": "COC(=O)c1ccc(CSc2nc3c([nH]c4ccccc43)c(=O)n2-c2cccc(OC)c2)o1", "Potency": "inactive"}, {"smiles": "COc1ccc(-n2ncc(C(=O)Nc3ccc(C)cc3Cl)c2C2CCN(C(=O)OC(C)(C)C)CC2)cc1", "Potency": "inconclusive [phenotype inactive, single point]"}, {"smiles": "CCOC(=O)c1cnc2ccc(OCC)cc2c1N1CCN(c2cccc(Cl)c2)CC1", "Potency": "inconclusive [phenotype inactive, single point]"}, {"smiles": "Cc1cc2c(cc1NC(=O)c1ccc(C(C)(C)C)cc1)n(C)c(=O)c(=O)n2C", "Potency": "inconclusive [phenotype inactive, single point]"}, {"smiles": "Cc1ccc(-c2nnc(SCC(=O)NCCC(C)C)nc2-c2ccc(C)cc2)cc1", "Potency": "inconclusive [phenotype inactive, single point]"}, {"smiles": "Cc1cc(OCC(=O)NCC2(N(C)C)CCCCC2)cc(C)c1Cl", "Potency": "inconclusive [phenotype inactive, partial curve]"}, {"smiles": "Cc1ccccc1OCCSc1nc2ccc(NC(=O)c3ccccc3)cc2s1", "Potency": "inconclusive [phenotype inactive, single point]"}, {"smiles": "COC(=O)c1ccccc1NC(=O)c1ncoc1-c1ccco1", "Potency": "inconclusive [phenotype inactive, partial curve, poor fit]"}, {"smiles": "O=C(Cn1c(=O)nc(-c2ccccc2)c2ccccc21)NCc1ccc(Cl)cc1", "Potency": "inconclusive [phenotype inactive, single point]"}, {"smiles": "Cc1cc(F)ccc1NS(=O)(=O)c1ccc(-n2cccn2)cc1", "Potency": "active: 15 µM"}, {"smiles": "CC(C)c1ccc(NC(=O)Cn2cc(S(=O)(=O)N3CCN(c4ccccc4F)CC3)c3ccccc3c2=O)cc1", "Potency": "inactive"}, {"smiles": "CCOC(=O)c1c(C)[nH]c(C)c1S(=O)(=O)N(C)CC(=O)N1CCN(c2ccccc2)CC1", "Potency": "inactive"}, {"smiles": "CCc1ccc(NC(=O)c2sc3nc(C)c(Cl)c(C)c3c2NC(=O)c2ccccc2OC)cc1", "Potency": "inactive"}, {"smiles": "CCOc1ccc(Oc2nc(NCC(C)C)nc(N3CCOCC3)n2)nn1", "Potency": "inactive"}, {"smiles": "Cc1cccc(N2CCN(CCCNc3ncnc4onc(-c5ccc(Cl)cc5)c34)CC2C)c1", "note": "(stereo not drawn)", "Potency": "inconclusive [phenotype inactive, partial curve]"}, {"smiles": "Cc1nc2c(-c3ccccc3)c(C)nn2c(C)c1CCC(=O)N1CCN(c2ccc(F)cc2)CC1", "Potency": "inconclusive [phenotype inactive, partial curve, poor fit]"}, {"smiles": "COc1ccc(NC(=O)Cn2c(=O)n(CCC(=O)NCc3ccccc3OC)c(=O)c3ccccc32)cc1Cl", "Potency": "active: 15 µM"}, {"smiles": "O=C(Nc1ccc2nc(SCC(=O)N3CCOCC3)sc2c1)c1cccc(Cl)c1", "Potency": "inactive"}, {"smiles": "CCN(CC)c1ccc(NC(=O)CCS(=O)(=O)c2cc3c(cc2Cl)NC(=O)CO3)c(C)c1", "Potency": "inconclusive [phenotype inactive, partial curve, poor fit]"}, {"smiles": "COCCCNC(=O)c1cc(-c2ccc(OC)cc2)nc2n[nH]c(-c3ccc(Cl)cc3)c12", "Potency": "inconclusive [phenotype inactive, single point]"}, {"smiles": "CC(C)OCCCNc1sc(S(=O)(=O)c2ccccc2)nc1S(=O)(=O)c1ccc(Cl)cc1", "Potency": "inconclusive [phenotype inactive, single point]"}, {"smiles": "O=C(Nc1nc2ccc(F)cc2s1)c1nc(SCc2ccccc2F)ncc1Cl", "Potency": "inconclusive [phenotype inactive, single point]"}, {"smiles": "O=C(CSCc1ccc(F)cc1)N1CCc2c([nH]c3ccccc23)C1c1ccc(F)cc1", "note": "(stereo not drawn)", "Potency": "inconclusive [phenotype inactive, single point]"}, {"smiles": "CCN(CC)S(=O)(=O)c1ccc(NC(=O)c2ccc3c(=O)n4c(nc3c2)CCCCC4)cc1", "Potency": "inconclusive [phenotype inactive, single point]"}, {"smiles": "Cc1c(C(=O)Nc2cccc(C(F)(F)F)c2)oc2ccc(S(=O)(=O)N3CCC4(CC3)OCCO4)cc12", "Potency": "inconclusive [phenotype inactive, partial curve, poor fit]"}, {"smiles": "Cn1nnnc1SCCNCc1ccc(OCc2ccccc2Cl)cc1", "Potency": "inactive"}, {"smiles": "Cc1cccc(N(C)C(CNS(=O)(=O)c2ccccc2)c2ccccc2)c1", "note": "(stereo not drawn)", "Potency": "inconclusive [phenotype inactive, single point]"}, {"smiles": "Cc1nnc(N2CCCC(C(=O)Nc3cccc(C(F)(F)F)c3)C2)c2nn(-c3ccccc3)c(C)c12", "note": "(stereo not drawn)", "Potency": "inconclusive [phenotype inactive, partial curve]"}]}]}
